Measurements from the supplement of paper PMC7125110.
± gives the standard error. Variants at the floor of the assay are shown more often than the library holds them.

B1: glmS ribozyme (parent)
chain: AUAAAAGCGCCAGAACUACAGAAAUGUAGUUGACGAGGAGGAGGUUUAUCGAAUUUUCGGCGGAUGCCUCCAAA

Experiments:
Conditions in all cases: with glucosamine-6-phosphate
glucosamine-6-phosphate [1] = variants of: B1; assay: self-cleavage kobs at 640 uM GlcN6P; higher = faster cleavage; RNA array
How it was run: (§1)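 Tracking of barcoded ribozyme variants used a hybridised Cy3 probe at 37 °C, after in situ transcription by E. coli RNA polymerase on sequenced MiSeq chips. The flowed solution held 40 μM to 10 mM glucosamine-6-phosphate in HEPES/KCl/Mg(OAc)2 buffer, and imaging ran over ~14 h. kobs was taken from exponential decay fits of normalised per-tile medians, and kcat and KM from weighted Michaelis–Menten fits.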

glucosamine-6-phosphate [2] = variants of: B1; assay: self-cleavage kobs at 160 uM GlcN6P; higher = faster cleavage; RNA array
How it was run: as §1

glucosamine-6-phosphate [3] = variants of: B1; assay: self-cleavage kobs at 10000 uM GlcN6P; higher = faster cleavage; RNA array
How it was run: as §1

glucosamine-6-phosphate [4] = variants of: B1; assay: self-cleavage kobs at 2500 uM GlcN6P; higher = faster cleavage; RNA array
How it was run: as §1

| Variant | self-cleavage kobs at 640 uM GlcN6P (glucosamine-6-phosphate [1]) [s⁻¹] | self-cleavage kobs at 160 uM GlcN6P (glucosamine-6-phosphate [2]) [s⁻¹] | self-cleavage kobs at 10000 uM GlcN6P (glucosamine-6-phosphate [3]) [s⁻¹] | self-cleavage kobs at 2500 uM GlcN6P (glucosamine-6-phosphate [4]) [s⁻¹] |
| --- | --- | --- | --- | --- |
| AUAAAAGCGCCAGAACUACAGAAAUGUAGUUGGCGAGGAGGAGUUUUAUCGAAUUUUCGGCGGAUGCCUCCAAA [A33G G44U] | < 1e-05 | < 1e-05 | < 1e-05 |  |
| AUAAAAGCGCCAGAACUACAGAAAUGUAGUUGUCGCGGAGGAAGUUUAUCGAAUUUUCGGCGGAUGCCUGCAAA [A33U A36C G43A C70G] | < 1e-05 | < 1e-05 |  | < 1e-05 |
| AUAAAAGCGCCAGAACUACAGAAAUGUAGUUGGCGAGGAGGAGGUUUGGCGAAUUUUUGGCGGAUGCCUCCAAA [A33G A48G U49G C58U] | < 1e-05 | < 1e-05 |  |  |
| AUAAAAGCGCCAGAACUACAGAAAUGUAGUUGUCGAGGAGGAGGUUUAUCGCACUUUCGGCGGAUGCCUCCAAA [A33U A52C U54C] | < 1e-05 |  |  |  |
| AUAAAAGCGCCAGAACUACAGAAAUGUAGUUGGCGAGGAGGAGGUUUAUCGGAUUUUCGGCGGAUGGAUCCAAA [A33G A52G C67G C68A] | < 1e-05 |  |  |  |
| AUAAAAGCGCCAGAACUACAGAAAUGUAGUUGUCGAGGAGGAGGUUUCUCGAAUUUUCGGCGGAUGCUUCCAAA [A33U A48C C68U] | < 1e-05 |  |  | < 1e-05 |
| AUAAAAGCGCCAGAACUACAGAAAUGUAGUUGUUGAGGAGGAGGUUUAUCGAAUUUUCGGCGGAUGCCUGCAAA [A33U C34U C70G] | 0.00168 ± 0.00079 |  |  |  |
| AUAAAAGCGCCAGAACUACAGAAAUGUAGUUGGCGAGGAGGAGGUUUAUCGAAGUUUCGGCGGAUGUCUCCAAA [A33G U54G C67U] | < 1e-05 |  |  |  |
| AUAAAAGCGCCAGAACUACAGAAAUGUAGUUGUCGAGUAGGAGGUUUGUCGAAUUUUCGGCGGAUGCCUCCAAA [A33U G38U A48G] | < 1e-05 |  |  | < 1e-05 |
| AUAAAAGCGCCAGAACUACAGAAAUGUAGUUGGCGAGGAGGAGGUGUAUCGAAUUUUCGGCGGCGGCCUCCAAA [A33G U46G A64C U65G] | < 1e-05 | < 1e-05 |  | < 1e-05 |
| AUAAAAGCGCCAGAACUACAGAAAUGUAGUUGUCGAGGAGGAGGUUUAUCGAAUUUUCGGCGGAUGCCUCUAAA [A33U C71U] | 3.01e-05 ± 7.2e-06 |  |  |  |
| AUAAAAGCGCCAGAACUACAGAAAUGUAGUUGGCGAGGACGAGGUUUAUCGAAUUUUCGGCAGAUGCCUCCAAA [A33G G40C G62A] | < 1e-05 |  |  | < 1e-05 |
| AUAAAAGCGCCAGAACUACAGAAAUGUAGUUGUCGAGGAGGGGGUUAAUCGAAUUUUCGGCGGUUGCCUCCAAA [A33U A42G U47A A64U] | < 1e-05 |  |  | < 1e-05 |
| AUAAAAGCGCCAGAACUACAGAAAUGUAGUUGUUGAGGAGGAGGUGUAUCGAAUUUUCGGCGGAUGCCUCCAAA [A33U C34U U46G] | < 1e-05 |  |  | < 1e-05 |
| AUAAAAGCGCCAGAACUACAGAAAUGUAGUUGGCGGGGAGGAGGUUUAUCGAAUUUUCGCCGGAUGCCUCCAAA [A33G A36G G60C] | < 1e-05 | < 1e-05 |  |  |
| AUAAAAGCGCCAGAACUACAGAAAUGUAGUUGUCGAGGAGGAGCUAUAUCGAUUUUUCGGCGGAUGCGUCCAAA [A33U G44C U46A A53U C68G] | < 1e-05 |  |  |  |
| AUAAAAGCGCCAGAACUACAGAAAUGUAGUUGGCGAGGAGGAGGUUUGUCGAAUUUUCGUCGGAUGCCUCCAAA [A33G A48G G60U] | < 1e-05 |  | < 1e-05 | < 1e-05 |
| AUAAAAGCGCCAGAACUACAGAAAUGUAGUUGGCUAUGAGGAGGUAUAUCGAAUUUUCUACGGAUGCCUCCAAA [A33G G35U G37U U46A G59U G60A] | < 1e-05 |  |  | < 1e-05 |
| AUAAAAGCGCCAGAACUACAGAAAUGUAGUUGGCGGGUACGAGGUUUAUCGAAUUUUCUGCGGAUGACUCGAAA [A33G A36G G38U G40C G59U C67A C71G] | < 1e-05 |  |  | < 1e-05 |
| AUAAAAGCGCCAGAACUACAGAAAUGUAGUUGCCGAGGAGGAGCUUUAUCGAAUUUUUGGAGGAUGCCUCCAAA [A33C G44C C58U C61A] | < 1e-05 |  |  |  |
| AUAAAAGCGCCAGAACUACAGAAAUGUAGUUGGGGAGGAGGAGGUUUAUCGAAUUUUCGGGGGAUGCCUCCAAA [A33G C34G C61G] | < 1e-05 |  |  |  |
